This is one part of the list.
How the values were obtained:
HSkMC = human skeletal muscle cells; experiment: cytotoxicity call (relative viability < 0.9); conditions: 10 µM
HepG2 = experiment: cytotoxicity call (relative viability < 0.9); conditions: 10 µM
S. aureus RN4220 = experiment: growth inhibition call (relative growth <= 0.2); conditions: 50 µM

Structure (SMILES)	cytotoxicity call (HSkMC)	cytotoxicity call (HepG2)	growth inhibition call (S. aureus RN4220)
CC(C)NC(=O)N(C)C[C@H]1Oc2ccc(NC(=O)Cn3cnnn3)cc2CC(=O)N([C@H](C)CO)C[C@H]1C	inactive	inactive	inactive
COc1ccc(NC(=O)N(C)C[C@H]2Oc3ccc(NC(=O)Nc4ccc(C(F)(F)F)cc4)cc3CC(=O)N([C@H](C)CO)C[C@H]2C)cc1	inactive	inactive	inactive
C[C@H]1CN([C@@H](C)CO)C(=O)c2cccc(NC(=O)Nc3ccc(C(F)(F)F)cc3)c2O[C@@H]1CN(C)C(=O)Nc1cccc2ccccc12	active	active	inactive
COc1ccc(S(=O)(=O)N(C)C[C@@H]2OCCCC[C@@H](C)Oc3ccc(NC(=O)Nc4c(C)noc4C)cc3C(=O)N([C@@H](C)CO)C[C@@H]2C)cc1	inactive	inactive	inactive
C[C@@H]1CCCCO[C@@H](CN(C)Cc2ccccc2)[C@@H](C)CN([C@H](C)CO)C(=O)c2cc(NC(=O)NC3CCCCC3)ccc2O1	inactive	inactive	inactive
C[C@H]1CN([C@@H](C)CO)C(=O)c2cccc(NC(=O)Nc3ccccc3)c2O[C@H]1CN(C)S(C)(=O)=O	inactive	inactive	inactive
CN1CCCN(C[C@@]2(O)CCNC2)CC1	inactive	inactive	inactive
O=C(C[C@H]1C=C[C@H](NC(=O)CN2CCOCC2)[C@H](CO)O1)NCCc1ccccc1	inactive	inactive	inactive
COc1ccc(S(=O)(=O)N(C)C[C@H]2Oc3cc(C4=CCCC4)ccc3S(=O)(=O)N([C@@H](C)CO)C[C@H]2C)cc1	inactive	inactive	inactive
C[C@@H]1CCCCO[C@H](CN(C)C(=O)Nc2ccc3c(c2)OCO3)[C@@H](C)CN([C@H](C)CO)C(=O)c2cc(NS(=O)(=O)c3ccc(F)cc3)ccc2O1	inactive	inactive	inactive
COc1ccc(S(=O)(=O)N(C)C[C@H]2OCCCC[C@@H](C)Oc3ccc(NC(=O)NC4CCCCC4)cc3C(=O)N([C@@H](C)CO)C[C@H]2C)cc1	inactive	active	inactive
C[C@H]1CN([C@@H](C)CO)C(=O)Cc2cc(NC(=O)C3CC3)ccc2O[C@@H]1CN(C)S(=O)(=O)c1ccc(F)cc1	inactive	inactive	inactive
C[C@@H]1CN([C@H](C)CO)C(=O)c2cccc(NS(C)(=O)=O)c2O[C@@H]1CN(C)S(=O)(=O)c1cn(C)cn1	inactive	inactive	inactive
CN1C(=O)[C@@H]2[C@@H](C(=O)c3ccccn3)[C@@H]2C1=O	inactive	inactive	inactive
C[C@H](CO)N1C[C@H](C)[C@@H](CN(C)S(=O)(=O)c2ccc(F)cc2)OCCCC[C@H](C)Oc2ccc(NC(=O)CCC(F)(F)F)cc2C1=O	inactive	inactive	inactive
CCCC(=O)Nc1ccc2c(c1)OC[C@@H](C)N(Cc1ccc(-c3ccccn3)cc1)C[C@H](C)[C@H](OC)CN(C)C2=O	inactive	inactive	inactive
CCS(=O)(=O)NCC[C@@H]1CC[C@@H](NS(=O)(=O)c2cccc(F)c2)[C@@H](CO)O1	inactive	inactive	inactive
CC1(C)O[C@H]2[C@H](O)C[C@](O)(C(N)=O)C[C@H]2O1	inactive	inactive	inactive
O=C1OC(=O)[C@H]2[C@@H]1[C@H]1CC[C@H]2O1	inactive	active	inactive

Structure (SMILES)	cytotoxicity call (HSkMC)	cytotoxicity call (HepG2)	growth inhibition call (S. aureus RN4220)
C[C@H](CO)N1C[C@H](C)[C@@H](CN(C)S(=O)(=O)c2cn(C)cn2)Oc2ncc(C3=CCCC3)cc2C1=O	inactive	inactive	inactive
C[C@H](CO)N1C[C@H](C)[C@@H](CN(C)S(=O)(=O)c2cccc(F)c2)Oc2ncc(C#CC3(O)CCCC3)cc2C1=O	inactive	inactive	inactive
C[C@@H]1CCCCO[C@@H](CN(C)C(=O)Nc2ccccc2)[C@@H](C)CN([C@H](C)CO)C(=O)c2cc(NS(=O)(=O)c3ccc(Cl)cc3)ccc2O1	inactive	inactive	inactive
C[C@H]1CN([C@@H](C)CO)C(=O)c2cc(NC(=O)CCCCCC(=O)Nc3ccccc3N)ccc2O[C@@H]1CN(C)C(=O)Nc1ccccc1	inactive	inactive	inactive
CC(C)CC#Cc1cnc2c(c1)C(=O)N([C@@H](C)CO)C[C@H](C)[C@@H](CN(C)S(=O)(=O)c1cccs1)O2	inactive	inactive	inactive
CS(=O)(=O)N1CCn2cc(Cn3cccn3)nc2C1	inactive	inactive	inactive
Cc1noc(C)c1S(=O)(=O)Nc1cccc2c1O[C@@H](CN(C)C(=O)NC1CCCCC1)[C@@H](C)CN([C@H](C)CO)C2=O	inactive	inactive	inactive
O=C(C[C@H]1CC[C@H]2[C@@H](COC[C@@H](O)CN2S(=O)(=O)c2cccc(Cl)c2)O1)NCCCN1CCOCC1	inactive	inactive	inactive
Cc1noc(C)c1NC(=O)Nc1ccc2c(c1)C(=O)N([C@@H](C)CO)C[C@H](C)[C@@H](CN(C)S(=O)(=O)c1ccc(F)cc1)OCCCC[C@H](C)O2	inactive	inactive	inactive
O=C(C[C@@H]1C[C@H]2c3cc(NC(=O)c4cccnc4)ccc3O[C@H]2[C@H](CO)O1)NCc1cc(F)ccc1F	inactive	inactive	inactive
C[C@@H]1CN([C@@H](C)CO)C(=O)CCCn2nncc2CO[C@@H]1CN(C)C(=O)Nc1cccc2ccccc12	inactive	inactive	inactive
COc1ccc(NC(=O)Nc2ccc3c(c2)C(=O)N([C@H](C)CO)C[C@H](C)[C@@H](CN(C)Cc2ccc(Cl)c(Cl)c2)O3)cc1	inactive	inactive	inactive
Cc1ccc(S(=O)(=O)Nc2ccc3c(c2)C(=O)N([C@@H](C)CO)C[C@@H](C)[C@@H](CN(C)C(=O)Nc2cccc4ccccc24)OCCCC[C@@H](C)O3)cc1	inactive	inactive	inactive
C[C@@H]1CCCCO[C@@H](CN(C)S(=O)(=O)c2ccc(F)cc2)[C@@H](C)CN([C@H](C)CO)C(=O)c2cc(NC(=O)CCC(F)(F)F)ccc2O1	inactive	inactive	inactive
O=C(Nc1ccc2ccccc2c1)c1ccc(Cl)cc1Cl	inactive	inactive	inactive
C[C@H](CO)N1C[C@H](C)[C@@H](CN(C)C(=O)Nc2ccc3c(c2)OCO3)OCCCC[C@H](C)Oc2ccc(NC(=O)Nc3ccc4c(c3)OCO4)cc2C1=O	inactive	inactive	inactive
CN(Cc1ccc(C(C)(C)C)cc1)Cc1cccc2ccccc12.Cl	inactive	inactive	inactive
C[C@@H]1CN([C@@H](C)CO)C(=O)c2cc(NC(=O)Cc3cn(C)c4ccccc34)ccc2O[C@@H]1CN(C)Cc1ccc(Cl)c(Cl)c1	active	active	inactive
C[C@@H]1CN([C@H](C)CO)C(=O)CCCn2cc(nn2)CO[C@@H]1CN(C)C(=O)C1CC1	inactive	inactive	inactive

Structure (SMILES)	cytotoxicity call (HSkMC)	cytotoxicity call (HepG2)	growth inhibition call (S. aureus RN4220)
Cc1noc(C)c1S(=O)(=O)Nc1ccc2c(c1)C(=O)N([C@@H](C)CO)C[C@H](C)[C@H](CN(C)Cc1ccc(C(=O)O)cc1)O2	inactive	inactive	inactive
Cc1ccc(S(=O)(=O)N(C)C[C@@H]2Oc3c(NS(=O)(=O)c4cccs4)cccc3C(=O)N([C@H](C)CO)C[C@H]2C)cc1	inactive	inactive	inactive
COc1ccc(S(=O)(=O)Nc2ccc3c(c2)C(=O)N([C@@H](C)CO)C[C@@H](C)[C@H](CN(C)C(=O)Nc2ccccc2)OCCCC[C@@H](C)O3)cc1	inactive	inactive	inactive
CCOC(=O)N[C@H]1CCS(=O)(=O)C1	inactive	inactive	inactive
C[C@H](CO)N1C[C@H](C)[C@H](CN(C)Cc2ccc3c(c2)OCO3)OCCCC[C@H](C)Oc2ccc(NC(=O)Cc3ccccc3)cc2C1=O	inactive	inactive	inactive
CN(c1ncccc1CNc1nc(Nc2ccc3c(c2)CC(=O)N3)ncc1C(F)(F)F)S(C)(=O)=O	active	active	inactive
O=C(C[C@@H]1C=C[C@@H](NC(=O)c2ccncc2)[C@H](CO)O1)NCc1ccncn1	inactive	inactive	inactive
COCC#Cc1cnc2c(c1)C(=O)N([C@H](C)CO)C[C@@H](C)[C@H](CN(C)C(=O)c1cnccn1)O2	inactive	inactive	inactive
COc1ccc(NC(=O)N(C)C[C@H]2Oc3ccc(NC(=O)Nc4cccc5ccccc45)cc3CC(=O)N([C@H](C)CO)C[C@@H]2C)cc1	inactive	inactive	inactive
C[C@@H]1CN([C@@H](C)CO)S(=O)(=O)c2ccc(Br)cc2O[C@H]1CN(C)Cc1cccc(F)c1	inactive	inactive	inactive
C[C@H](CO)N1C[C@H](C)[C@@H](CN(C)C(=O)CCCN(C)C)OCc2cnnn2CCCC1=O	inactive	inactive	inactive
C[C@H]1CN([C@@H](C)CO)C(=O)c2cccc(NS(=O)(=O)c3cn(C)cn3)c2O[C@H]1CN(C)S(=O)(=O)c1ccccc1	inactive	inactive	inactive
CNc1cccc(CN)c1	inactive	inactive	inactive
COc1ccc(S(=O)(=O)N(C)C[C@H]2OCCCC[C@@H](C)Oc3ccc(NS(=O)(=O)c4cn(C)cn4)cc3C(=O)N([C@H](C)CO)C[C@H]2C)cc1	inactive	active	inactive
O=C(O)c1ccno1	inactive	inactive	inactive
Cc1noc(C)c1S(=O)(=O)N(C)C[C@@H]1Oc2ccc(N(C)C)cc2CC(=O)N([C@H](C)CO)C[C@@H]1C	inactive	inactive	inactive
COc1ccc(NC(=O)Nc2ccc3c(c2)[C@@H]2C[C@H](CC(=O)N4CCN(C)CC4)O[C@H](CO)[C@@H]2O3)cc1	inactive	inactive	inactive
C[C@H]1CN([C@@H](C)CO)C(=O)c2cccc(NS(C)(=O)=O)c2O[C@@H]1CN(C)C(=O)Nc1ccc(C(F)(F)F)cc1	inactive	inactive	inactive

Reference: the antibiotic and cytotoxicity screens of Wong et al. (2023)
